Structures can show the parent of a compound that is named as a salt. ± gives the standard deviation of the averaged measurements. The list shows a part of the results.

The test system of this experiment is OVCAR8. As to the kind of experiment: cell count relative to DMSO vehicle (fold change); OVCAR8 is a high-grade serous ovarian cancer line and CX-5461 an RNA polymerase I inhibitor; higher = more surviving senescent cells (less killing). Conditions: senescence inducer: CX-5461 3 µM 48 h, then 6 d recovery (CX senescent), exposure time 24 h.

On to `Cn1c(CCCC(=O)O)nc2cc(N(CCCl)CCCl)ccc21` [Bendamustine (hydrochloride)], for which the cell count was determined as 1.16 ± 0.32 (compound dose 1 µM) and 1.16 ± 0.24 (compound dose 5 µM).
The like results for `COc1cc(C(=O)O[C@H]2[C@@H]3C=CO[C@@H](O[C@@H]4O[C@H](CO)[C@@H](O)[C@H](O)[C@H]4O)[C@@H]3[C@@]3(CO)O[C@@H]23)ccc1O` [Picroside II] were, in that order, 1.06 ± 0.03 and 1.11 ± 0.043.
The like results for `Cc1sc2c(c1C)C(c1ccc(Cl)cc1)=N[C@@H](CC(N)=O)c1nnc(C)n1-2` were, in that order, 1.11 ± 0.061 and 1.2 ± 0.096.
The corresponding values for `CCOC1c2c(ccc3c2OCO3)-c2ccc3cc4c(cc3c2N1C)OCO4` (stereo unspecified) [Ethoxysanguinarine] are 0.002 and 0.108 ± 0.043.
Turning to `C=CC(=O)N[C@H]1C=C(C)c2c(-c3cnc4ccccc4c3)c3c(N)ncnc3n2C1`, the cell count is, setting by setting: (compound dose 1 µM) 1.19 ± 0.1; (compound dose 5 µM) 1.02 ± 0.13.
The like results for `C/C(=C\c1csc(C)n1)[C@@H]1C[C@@H]2O[C@@H]2CCC[C@H](C)[C@H](O)[C@@H](C)C(=O)C(C)(C)[C@@H](O)CC(=O)O1` [Epothilone A] were, in that order, 1 ± 0.091 and 1.09 ± 0.099.
Regarding `COC1=C[C@@H]2[C@@H]3Cc4ccc(OC)c(O)c4[C@]2(CCN3C)CC1=O`, the cell count (compound dose 1 µM) was 1.08 ± 0.046 and the cell count (compound dose 5 µM) turned out to be 1.06 ± 0.071.
The corresponding values for `COC1=C[C@@H]2[C@@H]3Cc4ccc(OC)c(O)c4[C@]2(CCN3C)CC1=O` [Sinomenine hydrochloride] are 1.055 ± 0.0028 and 1.08 ± 0.18.
The like results for `C/C=C(\C)C(=O)O[C@H]1C[C@@H](OC(C)=O)[C@@]2(C(=O)OC)CO[C@H]3[C@@H](O)[C@@](C)([C@]45O[C@@]4(C)[C@H]4C[C@@H]5O[C@@H]5OC=C[C@@]54O)[C@H]4[C@]1(CO[C@]4(O)C(=O)OC)[C@@H]32` were, in that order, 1.12 ± 0.021 and 1.09 ± 0.18.
The corresponding values for `Cc1cc2c(C(C)C)c(O)c(O)c(C=O)c2c(O)c1-c1c(C)cc2c(C(C)C)c(O)c(O)c(C=O)c2c1O` are 1.08 ± 0.056 and 1.06 ± 0.059.
Consider `O=c1[nH]c2ccc(Cl)cc2c(N[C@@H]2CN3CCC2CC3)c1-c1nc2ccccc2[nH]1`, for which the cell count (compound dose 1 µM) is 0.709 ± 0.0014 and the cell count (compound dose 5 µM) is 0.517 ± 0.081.
As for `O=C1Nc2ccc3ncsc3c2/C1=C/c1cnc[nH]1`, the cell count reads like this: (compound dose 1 µM) 0.867 ± 0.15; (compound dose 5 µM) 0.894 ± 0.17.
On to `NCCCNCCSP(=O)(O)O`, for which the cell count is 1.05 ± 0.18 (compound dose 1 µM) and 1.01 ± 0.13 (compound dose 5 µM).
The corresponding values for `C=C(CO)C(=O)O[C@H]1CC(=C)[C@@H]2C[C@H](O)C(=C)[C@@H]2[C@H]2OC(=O)C(=C)[C@@H]21` [Cynaropicrin] are 0.917 ± 0.0085 and 0.371 ± 0.04.
The corresponding values for `COc1cc2c(cc1OC)-c1c(oc3c4c(ccc3c1=O)OC(C(C)C)C4)CO2` (stereo unspecified) are 1.13 ± 0.013 and 1.28 ± 0.17.
The like results for `COc1c(C)c(O)cc2[o+]c(-c3ccccc3)ccc12.[O-][Cl+3]([O-])([O-])[O-]` [Dracorhodin perchlorate] were, in that order, 1.22 ± 0.36 and 1.2 ± 0.32.
`CC(C)[C@]12O[C@H]1[C@@H]1O[C@@]13[C@@]1(C)CCC4=C(COC4=O)[C@@H]1C[C@@H]1O[C@@]13C2=O` [Triptonide]: the cell count runs as follows: (compound dose 1 µM) 0.796 ± 0.011; (compound dose 5 µM) 0.745 ± 0.036.
The compound `C[C@@]1(C(=O)O)CC[C@]2(C)CC[C@]3(C)C4=CC(=O)c5c(cc(O)c(O)c5C=O)[C@]4(C)CC[C@@]3(C)[C@@H]2C1` [Demethylzeylasteral] returned a cell count (compound dose 1 µM) of 0.788 ± 0.019 and a cell count (compound dose 5 µM) of 1.091 ± 0.0014.
The corresponding values for `Cn1c(COP(=O)(NCCBr)NCCBr)cnc1[N+](=O)[O-]` [Evofosfamide] are 1.17 ± 0.18 and 1.16 ± 0.1.
The like results for `Cc1ncc(C[n+]2csc(CCO)c2C)c(=O)[nH]1` [Oxythiamine] were, in that order, 1.17 ± 0.28 and 1.17 ± 0.24.
The corresponding values for `C[C@@H]1CC[C@]2(NC1)O[C@H]1C[C@H]3[C@@H]4CC=C5C[C@@H](O)CC[C@]5(C)[C@H]4CC[C@]3(C)[C@H]1[C@@H]2C` are 1.06 ± 0.16 and 1.1 ± 0.17.
In turn, `O=C1C2CCN(CC2)C1(CO)CO` displayed a cell count (compound dose 1 µM) of 0.97 ± 0.033 and a cell count (compound dose 5 µM) of 0.871 ± 0.12.
Regarding `C[C@H]1CC[C@]2(NC1)O[C@H]1C[C@H]3[C@@H]4CC[C@H]5C[C@@H](O[C@@H]6O[C@H](CO)[C@H](O[C@@H]7O[C@H](CO)[C@@H](O)[C@H](O[C@@H]8OC[C@@H](O)[C@H](O)[C@H]8O)[C@H]7O[C@@H]7O[C@H](CO)[C@@H](O)[C@H](O)[C@H]7O)[C@H](O)[C@H]6O)CC[C@]5(C)[C@H]4CC[C@]3(C)[C@H]1[C@@H]2C` [Tomatine], the cell count amounted to 0.166 ± 0.059 (compound dose 1 µM) and 0.0245 ± 0.005 (compound dose 5 µM).
The corresponding values for `N#Cc1cn([C@@H]2O[C@H](CO)[C@@H](O)[C@H]2O)c2ncnc(N)c12` [Toyocamycin] are 1 ± 0.057 and 1.02.
`O=C1c2ccccc2C(=O)c2c1cccc2-c1cnn(C2CCNCC2)c1` [PDK4-IN-1 (hydrochloride)] showed a cell count (compound dose 1 µM) of 0.981 ± 0.098 and a cell count (compound dose 5 µM) of 0.941 ± 0.025.
`C[C@]12CC[C@H](O)C[C@@]1(O)CC[C@@H]1[C@@H]2CC[C@]2(C)[C@@H](c3ccc(=O)oc3)[C@@H](O)[C@H]3O[C@]132` [Desacetylcinobufotalin] returned a cell count (compound dose 1 µM) of 1.22 ± 0.04 and a cell count (compound dose 5 µM) of 0.795 ± 0.16.
The corresponding values for `O=C1CCC[C@@H]2[C@H]3CCCN4CCC[C@H](CN12)[C@@H]34` [Sophoridine] are 1.19 ± 0.17 and 1.11 ± 0.33.
The corresponding values for `COc1ccc2c(c[n+](C)c3c4cc5c(cc4ccc23)OCO5)c1OC` [Chelerythrine (chloride)] are 1.18 ± 0.14 and 1.2 ± 0.2.
